Article PMC11933320
Substitutions are numbered along the chain they refer to. Results are given in words; binding and its absence hold for the method and conditions named. Binding seen in cells or lysates may run through a third protein. Some entries that bind do so weakly or less than the wild type. For part of these data: Where a sequence is shown, tags or fusion partners need not be part of it.

By UniProt entry, the sequences of proteins in these tests, tags left out.
UniProt Q86WV6: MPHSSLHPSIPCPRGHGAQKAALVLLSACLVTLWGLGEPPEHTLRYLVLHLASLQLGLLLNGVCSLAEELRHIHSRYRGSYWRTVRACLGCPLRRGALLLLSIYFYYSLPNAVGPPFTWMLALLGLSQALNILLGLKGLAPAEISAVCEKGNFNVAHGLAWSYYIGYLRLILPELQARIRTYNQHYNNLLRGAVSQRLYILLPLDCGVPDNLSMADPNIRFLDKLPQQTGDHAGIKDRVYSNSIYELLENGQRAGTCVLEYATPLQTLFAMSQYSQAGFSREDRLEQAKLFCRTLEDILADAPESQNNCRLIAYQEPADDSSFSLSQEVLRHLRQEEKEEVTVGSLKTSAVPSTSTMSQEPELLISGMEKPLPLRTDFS
UniProt Q7Z434: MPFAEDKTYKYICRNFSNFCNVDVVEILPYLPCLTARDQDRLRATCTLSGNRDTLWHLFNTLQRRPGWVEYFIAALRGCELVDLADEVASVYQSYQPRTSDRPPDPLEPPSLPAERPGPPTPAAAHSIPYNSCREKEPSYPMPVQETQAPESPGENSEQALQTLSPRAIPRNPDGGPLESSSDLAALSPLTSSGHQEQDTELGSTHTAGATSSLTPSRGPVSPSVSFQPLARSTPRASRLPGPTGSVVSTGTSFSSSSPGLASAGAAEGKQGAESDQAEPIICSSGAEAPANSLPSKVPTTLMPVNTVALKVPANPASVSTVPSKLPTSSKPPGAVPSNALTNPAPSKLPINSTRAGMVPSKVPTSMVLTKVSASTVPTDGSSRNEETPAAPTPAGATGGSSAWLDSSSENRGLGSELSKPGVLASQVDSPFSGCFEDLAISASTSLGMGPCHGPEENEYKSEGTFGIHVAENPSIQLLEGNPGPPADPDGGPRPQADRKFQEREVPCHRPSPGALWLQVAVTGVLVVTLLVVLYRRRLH
UniProt Q8N884: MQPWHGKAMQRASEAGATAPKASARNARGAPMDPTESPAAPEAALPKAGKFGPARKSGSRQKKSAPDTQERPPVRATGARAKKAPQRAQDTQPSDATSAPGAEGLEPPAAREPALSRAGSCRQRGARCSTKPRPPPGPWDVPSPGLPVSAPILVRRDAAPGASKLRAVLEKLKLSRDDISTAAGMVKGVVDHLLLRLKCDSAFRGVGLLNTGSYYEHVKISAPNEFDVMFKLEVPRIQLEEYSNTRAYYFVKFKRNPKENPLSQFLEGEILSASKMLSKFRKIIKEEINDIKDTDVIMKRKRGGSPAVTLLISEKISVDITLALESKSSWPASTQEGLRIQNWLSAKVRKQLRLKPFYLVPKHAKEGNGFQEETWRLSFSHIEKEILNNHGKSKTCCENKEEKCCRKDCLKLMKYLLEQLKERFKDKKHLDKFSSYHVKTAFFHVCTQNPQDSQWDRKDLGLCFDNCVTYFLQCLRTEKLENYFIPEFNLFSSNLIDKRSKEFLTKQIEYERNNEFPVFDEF

Legend:
[1] = biological target: T1, Endogenous DSTYK (human (endogenous in HeLa)) (UniProt Q6XUX3); assay: co-IP; endogenous proteins; HeLa cells stimulated with pDNA (1 ug/mL) for 18 and 24 h; IP with anti-DSTYK, IB with anti-DSTYK and anti-STING
T1 sequence: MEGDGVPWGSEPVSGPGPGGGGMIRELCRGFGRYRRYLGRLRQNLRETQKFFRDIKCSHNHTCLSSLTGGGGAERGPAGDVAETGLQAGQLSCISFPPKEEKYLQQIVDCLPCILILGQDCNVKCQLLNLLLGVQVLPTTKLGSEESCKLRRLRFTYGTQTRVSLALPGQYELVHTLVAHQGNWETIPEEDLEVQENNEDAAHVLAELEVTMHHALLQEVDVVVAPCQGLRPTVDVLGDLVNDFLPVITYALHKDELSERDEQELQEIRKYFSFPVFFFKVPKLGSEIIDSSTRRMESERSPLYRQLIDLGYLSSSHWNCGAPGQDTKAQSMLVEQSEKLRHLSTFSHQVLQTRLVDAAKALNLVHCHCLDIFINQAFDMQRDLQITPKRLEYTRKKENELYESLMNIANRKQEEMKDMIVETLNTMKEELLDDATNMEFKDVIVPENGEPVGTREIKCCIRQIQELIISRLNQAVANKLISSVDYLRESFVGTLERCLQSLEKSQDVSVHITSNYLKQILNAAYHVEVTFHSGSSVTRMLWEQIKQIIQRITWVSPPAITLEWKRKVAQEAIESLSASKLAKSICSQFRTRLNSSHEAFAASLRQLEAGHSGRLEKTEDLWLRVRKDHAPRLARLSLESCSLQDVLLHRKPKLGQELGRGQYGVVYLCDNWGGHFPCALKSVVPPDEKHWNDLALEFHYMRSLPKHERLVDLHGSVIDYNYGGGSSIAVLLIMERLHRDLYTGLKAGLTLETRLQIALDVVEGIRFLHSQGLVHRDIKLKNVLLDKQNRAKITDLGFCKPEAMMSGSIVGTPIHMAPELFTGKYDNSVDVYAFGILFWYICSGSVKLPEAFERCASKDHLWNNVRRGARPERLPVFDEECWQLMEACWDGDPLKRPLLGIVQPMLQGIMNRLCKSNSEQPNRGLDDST

[2] = biological target: T2, HA-tagged dual serine/threonine and tyrosine protein kinase (DSTYK) (human) (UniProt Q6XUX3); assay: co-IP; HEK293T cells transfected with the indicated plasmids (5 ug each) for 24 h; Triton X-100 lysis buffer; IP with anti-HA, IB with anti-HA and anti-Flag
T2 sequence: T1 sequence

[3] = biological target: T3, HA-tagged DSTYK-K681A (kinase-dead mutant) (human) (UniProt Q6XUX3); assay: as above
T3 sequence: T1 sequence with K681A

[4] = biological target: T4, HA-tagged DSTYK-D777A (kinase-dead mutant) (human) (UniProt Q6XUX3); assay: as above
T4 sequence: T1 sequence with D777A

[5] = biological target: T5, Flag-tagged dual serine/threonine and tyrosine protein kinase (DSTYK) (human) (UniProt Q6XUX3); assay: co-IP; STING-non-expressing HEK293T cells transfected with Flag-tag and HA-tag plasmids (5 ug each) for 24 h; Triton X-100 lysis buffer; IP with anti-Flag, IB with anti-HA and anti-Flag
T5 sequence: T1 sequence

[6] = biological target: Flag-tagged stimulator of interferon genes (STING) (human) (UniProt Q86WV6); assay: as above

Endogenous STING (from UniProt Q86WV6 1-379)
binding [1]: binds

Flag-tagged stimulator of interferon genes (STING) (from UniProt Q86WV6 1-379)
binding [2]: binds
binding [3]: binds
binding [4]: binds

HA-tagged VISA (from UniProt Q7Z434 1-540)
binding [5]: no binding

HA-tagged cyclic GMP-AMP synthase (cGAS) (from UniProt Q8N884 1-522) (enzyme)
binding [5]: no binding

B1: HA-tagged dual serine/threonine and tyrosine protein kinase (DSTYK) (enzyme, UniProt Q6XUX3 1-929)
chain: T1 sequence
binding [6]: binds

B2: HA-tagged TANK-binding kinase 1 (TBK1) (enzyme, UniProt Q9UHD2 1-729)
chain: MQSTSNHLWLLSDILGQGATANVFRGRHKKTGDLFAIKVFNNISFLRPVDVQMREFEVLKKLNHKNIVKLFAIEEETTTRHKVLIMEFCPCGSLYTVLEEPSNAYGLPESEFLIVLRDVVGGMNHLRENGIVHRDIKPGNIMRVIGEDGQSVYKLTDFGAARELEDDEQFVSLYGTEEYLHPDMYERAVLRKDHQKKYGATVDLWSIGVTFYHAATGSLPFRPFEGPRRNKEVMYKIITGKPSGAISGVQKAENGPIDWSGDMPVSCSLSRGLQVLLTPVLANILEADQEKCWGFDQFFAETSDILHRMVIHVFSLQQMTAHKIYIHSYNTATIFHELVYKQTKIISSNQELIYEGRRLVLEPGRLAQHFPKTTEENPIFVVSREPLNTIGLIYEKISLPKVHPRYDLDGDASMAKAITGVVCYACRIASTLLLYQELMRKGIRWLIELIKDDYNETVHKKTEVVITLDFCIRNIEKTVKVYEKLMKINLEAAELGEISDIHTKLLRLSSSQGTIETSLQDIDSRLSPGGSLADAWAHQEGTHPKDRNVEKLQVLLNCMTEIYYQFKKDKAERRLAYNEEQIHKFDKQKLYYHATKAMTHFTDECVKKYEAFLNKSEEWIRKMLHLRKQLLSLTNQCFDIEEEVSKYQEYTNELQETLPQKMFTASSGIKHTMTPIYPSSNTLVEMTLGMKKLKEEMEGVVKELAENNHILERFGSLTMDGGLRNVDCL
binding [5]: no binding

B3: HA-tagged RIG-I (protein, UniProt O95786 1-925)
chain: MTTEQRRSLQAFQDYIRKTLDPTYILSYMAPWFREEEVQYIQAEKNNKGPMEAATLFLKFLLELQEEGWFRGFLDALDHAGYSGLYEAIESWDFKKIEKLEEYRLLLKRLQPEFKTRIIPTDIISDLSECLINQECEEILQICSTKGMMAGAEKLVECLLRSDKENWPKTLKLALEKERNKFSELWIVEKGIKDVETEDLEDKMETSDIQIFYQEDPECQNLSENSCPPSEVSDTNLYSPFKPRNYQLELALPAMKGKNTIICAPTGCGKTFVSLLICEHHLKKFPQGQKGKVVFFANQIPVYEQQKSVFSKYFERHGYRVTGISGATAENVPVEQIVENNDIIILTPQILVNNLKKGTIPSLSIFTLMIFDECHNTSKQHPYNMIMFNYLDQKLGGSSGPLPQVIGLTASVGVGDAKNTDEALDYICKLCASLDASVIATVKHNLEELEQVVYKPQKFFRKVESRISDKFKYIIAQLMRDTESLAKRICKDLENLSQIQNREFGTQKYEQWIVTVQKACMVFQMPDKDEESRICKALFLYTSHLRKYNDALIISEHARMKDALDYLKDFFSNVRAAGFDEIEQDLTQRFEEKLQELESVSRDPSNENPKLEDLCFILQEEYHLNPETITILFVKTRALVDALKNWIEGNPKLSFLKPGILTGRGKTNQNTGMTLPAQKCILDAFKASGDHNILIATSVADEGIDIAQCNLVILYEYVGNVIKMIQTRGRGRARGSKCFLLTSNAGVIEKEQINMYKEKMMNDSILRLQTWDEAVFREKILHIQTHEKFIRDSQEKPKPVPDKENKKLLCRKCKALACYTADVRVIEECHYTVLGDAFKECFVSRPHPKPKQFSSFEKRAKIFCARQNCSHDWGIHVKYKTFEIPVIKIESFVVEDIATGVQTLYSKWKDFHFEKIPFDPAEMSK
binding [5]: no binding
